# In PubChem BioAssay AID1768 (National Center for Advancing Translational Sciences (NCATS), 2009):
# Screen size: about 270,000 compounds; about 620 (0.23%) were called active. Inconclusive results, whose numbers are uncertain, are shown with a selection of clear calls. The call rests on the fitted dose curve; in most records, active means well fitted inhibition curve with a large enough effect in the polarisation, with a control signal flat (not every such curve was filed as active); inconclusive means small, poorly fitted or top-dose-only effect, or effect the other way, or a change in a side signal; inactive means no such curve, though single readings can be large or run the other way; the % refers to the polarisation. Potencies beside an inconclusive call are fits to weak or partial responses and may not hold up. A note “side channel” means that the fit belongs to a control or component signal, not to the main read-out.
# Target: Menin (Homo sapiens) (UniProt O00255)
# Test: qHTS Assay for Inhibitors Targeting the Menin-MLL Interaction in MLL Related Leukemias: Competition With Texas Red Labeled MLL-derived Mutant Peptide; on FP activity change, negative = inhibition: % of control where 0% means no effect
# Conditions: fluorescence polarization; FP activity change, negative = inhibition: at 61.6 µM (top of the series)
# Potency means the concentration at half of the fitted maximal effect; tags describe the fitted curve by direction and shape or compound fluorescence and quenching.
# Sequence of UniProt O00255 (O00255 whole entry, looked up): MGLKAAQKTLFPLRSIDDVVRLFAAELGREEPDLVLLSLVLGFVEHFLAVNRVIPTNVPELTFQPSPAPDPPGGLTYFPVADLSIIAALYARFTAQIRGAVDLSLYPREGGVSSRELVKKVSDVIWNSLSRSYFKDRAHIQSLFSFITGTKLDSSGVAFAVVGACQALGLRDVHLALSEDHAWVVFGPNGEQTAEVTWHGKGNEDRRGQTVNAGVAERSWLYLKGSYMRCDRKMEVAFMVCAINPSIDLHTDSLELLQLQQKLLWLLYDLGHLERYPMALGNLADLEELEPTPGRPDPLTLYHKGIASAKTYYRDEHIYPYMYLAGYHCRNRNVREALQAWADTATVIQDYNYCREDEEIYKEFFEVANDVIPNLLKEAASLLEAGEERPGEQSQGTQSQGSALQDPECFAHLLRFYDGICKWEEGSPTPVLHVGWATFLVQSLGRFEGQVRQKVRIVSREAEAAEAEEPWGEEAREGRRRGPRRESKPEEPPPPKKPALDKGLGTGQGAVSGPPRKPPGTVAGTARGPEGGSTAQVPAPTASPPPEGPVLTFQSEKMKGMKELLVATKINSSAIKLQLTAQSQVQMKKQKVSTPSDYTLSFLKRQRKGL
SMILES,Potency,"FP activity change, negative = inhibition"
O=C(CSc1nnc(-c2ccco2)o1)c1ccc[nH]1,"inconclusive: 25.1 µM [quencher, side channel, partial curve]",
COC(=O)Cn1c(=NC(=O)c2ccc(S(=O)(=O)N3CCOCC3)cc2)sc2cc(S(N)(=O)=O)ccc21,"inconclusive: 11.2 µM [quencher, side channel, partial curve]",
COc1cc(C(=O)Oc2cc(C)cc(C)c2)cc(OC)c1OC,"inconclusive: 25.1 µM [fluorescent, side channel, single point]",
Cc1cc(=O)[nH]c(N/N=C/c2ccco2)n1,"inconclusive: 20 µM [inhibitor, single point]",
CCOc1ccc(N2C(=O)CC(Sc3ccccc3C(=O)O)C2=O)c([N+](=O)[O-])c1 (stereo not given),"inconclusive: 11.2 µM [quencher, side channel, partial curve]",
N[C@@H](Cc1cc(I)c(Oc2cc(I)c(O)c(I)c2)c(I)c1)C(=O)O,"inconclusive: 25.1 µM [quencher, side channel, partial curve]",
O=[N+]([O-])c1ccc2c(c1)C(O)n1ncnc1S2 (stereo not given),inactive,
CCn1c(CO)nc2c1c(=O)[nH]c(=O)n2Cc1ccccc1,"inconclusive: 4.47 µM [inhibitor, single point]",
CCC[C@@H]1NC(=O)[C@@H](NC(C)=O)CSSC[C@@H](C(N)=O)NC(=O)CNC(=O)[C@H](Cc2c[nH]c3ccccc23)NC(=O)[C@H](CCCN=C(N)N)NC(=O)[C@H](Cc2ccc3ccccc3c2)NC(=O)[C@H](Cc2cnc[nH]2)NC(=O)[C@H](CCCN=C(N)N)NC1=O,inactive,
CN1CCN(c2ncnc3ccc(-c4cccnc4)cc23)CC1,"inconclusive: 15.8 µM [inhibitor, partial curve]",
CCc1ccc(C2CC(=O)N3CN(c4ccccc4)CSC3=C2C#N)cc1 (stereo not given),"inconclusive: 28.2 µM [quencher, side channel, single point]",
Cc1ccc(NC(=O)CCC(=O)N/N=C/c2cc([N+](=O)[O-])ccc2O)cc1,"inconclusive: 31.6 µM [quencher, side channel, single point]",
CC1(C)CCC(C)(C)c2cc(NC(=O)c3ccc(C(=O)O)cc3)ccc21,"inconclusive: 14.1 µM [quencher, side channel, partial curve]",
CCN(CC)CCNCc1cc(Br)ccc1OCC(=O)NCc1ccccc1,"inconclusive: 31.6 µM [inhibitor, single point]",
Cc1nnc(NC(=O)c2ccc(S(=O)(=O)N(C)Cc3ccccc3)cc2)o1,"inconclusive: 22.4 µM [quencher, single point]",
Cc1cc(=O)oc2cc(O)c(O)cc12,inactive,
Cn1c(O)c(N=NC(=S)Nc2ccccc2F)c2cc(S(=O)(=O)N3CCOCC3)ccc21,"inconclusive: 14.1 µM [quencher, partial curve]",
O=c1nc2s/c(=C\c3ccc(-c4ccccc4[N+](=O)[O-])o3)c(=O)n2nc1-c1ccccc1,"inconclusive: 11.2 µM [quencher, side channel, partial curve]",
Cn1c(=O)c2nc(Cl)c(-c3ccccc3)nc2n(C)c1=O,inactive,
Cc1ccc(/C=C2\SC(=S)N(CCCC(=O)Nc3cc(C)on3)C2=O)cc1,"inconclusive: 22.4 µM [fluorescent, side channel, partial curve]",
C=Cc1c(C)c2cc3nc(cc4[nH]c(cc5nc(cc1[nH]2)C(C)=C5CCC(=O)O)c(CCC(=O)OC)c4C)[C@@]1(C)C3=CC=C(C(=O)OC)[C@H]1C(=O)OC (tested in a mixture with another compound),"inconclusive: 7.94 µM [quencher, side channel, partial curve]",
COc1cc2c(C(=O)N3CCN(C)CC3)c(CSc3ccccc3)n(C)c2cc1Br,"inconclusive: 3.98 µM [fluorescent, side channel, partial curve]",
CC(C)(C)C(=O)N1CCN(CCN2C(=O)c3cccc4cccc(c34)C2=O)CC1,"inconclusive: 22.4 µM [inhibitor, partial curve, poor fit]",
O=C(Nc1ccccc1)c1ccc(CSc2ncccn2)cc1,"inconclusive: 0.708 µM [inhibitor, full curve, poor fit]",
CS(=O)c1ccccc1-c1nc(-c2cc(C(F)(F)F)cc(C(F)(F)F)c2)no1 (stereo not given),"inconclusive: 3.16 µM [inhibitor, full curve]",
Cc1cccc(N(CC(=O)Nc2ccc(-c3nc4ccc(C)cc4s3)cc2)S(C)(=O)=O)c1,"inconclusive: 7.94 µM [quencher, side channel, partial curve]",
Cc1ccc(S(=O)(=O)c2nc(S(=O)(=O)c3ccc(C)cc3)c(NCc3ccco3)s2)cc1,"inconclusive: 39.8 µM [inhibitor, single point]",
COC(=O)c1cc(NC(=O)c2c(Cl)nc3sccn23)cc(C(=O)OC)c1,inactive,

SMILES,Potency,"FP activity change, negative = inhibition"
O=C(CCS(=O)(=O)c1ccc(Br)cc1)N1CCN(c2ccc(Cl)cc2)CC1,"inconclusive: 15.8 µM [fluorescent, side channel, partial curve]",
COCCCN1CCN(C2Cc3ccccc3Sc3ccc(Cl)cc32)CC1 (stereo not given),"inconclusive: 12.6 µM [fluorescent, side channel, partial curve]",
O=C(Nc1ccc(F)c([N+](=O)[O-])c1)c1cccs1,"inconclusive: 14.1 µM [quencher, side channel, partial curve]",
CC1=NN(c2nc(-c3ccccc3)cs2)C(=O)C1N=Nc1ccccc1 (stereo not given),"inconclusive: 10 µM [quencher, side channel, partial curve]",
Cc1ccc(N2CCN(CC(O)COc3cccc4ccccc34)CC2)cc1 (stereo not given),"inconclusive: 39.8 µM [fluorescent, side channel, single point]",
CCN(CC(=O)Nc1ccc(NC(C)=O)cc1)Cc1c(O)ccc2cc(Br)ccc12,"inconclusive: 7.94 µM [quencher, side channel, single point]",
Cc1ccccc1NC(=O)CSc1nnc(-c2ccco2)c(-c2ccco2)n1,"inconclusive: 3.16 µM [quencher, side channel, partial curve, poor fit]",
CCS(=O)(=O)N1CCCC(C(=O)NC2CCCCC2C)C1 (stereo not given),inactive,
CCN(CC)c1ccc(S(=O)(=O)N2CCOCC2)cc1NC(=O)c1cc(=O)c2ccccc2o1,inactive,
CCSc1nnc(NC(=O)CSc2nccn2-c2cc(C)cc(C)c2)s1,"inconclusive: 17.8 µM [fluorescent, side channel, partial curve]",
Cc1cccc(S(=O)(=O)Nc2ccc(-c3nc4ccc(C)cc4s3)cc2)c1,"inconclusive: 22.4 µM [quencher, side channel, single point]",
Cc1ccc(N2CC(C(=O)Nc3ccccc3C(=O)NC3CCCCC3)CC2=O)cc1 (stereo not given),"inconclusive: 39.8 µM [fluorescent, side channel, single point]",
COc1ccc(/C=C2\C(=O)N(c3c(Cl)cc(Cl)cc3Cl)N=C2NC(=O)c2cccc([N+](=O)[O-])c2)cc1,"inconclusive: 28.2 µM [quencher, side channel, partial curve]",
O=C(CCCN1C(=O)c2ccccc2C1=O)Nc1ccc(Br)cn1,"inconclusive: 25.1 µM [inhibitor, single point]",
O=C(C1CCN(S(=O)(=O)c2ccc(Br)s2)CC1)N1CCN(C2CCCCC2)CC1,"inconclusive: 7.08 µM [inhibitor, partial curve]",
O=C(O)CSc1cccc2cccnc12,inactive,
Cc1occc1C(=O)Nc1cccc2ccccc12,"inconclusive: 14.1 µM [quencher, side channel, partial curve]",
Cc1ccc2oc(-c3ccc(C)c(NC(=S)NC(=O)c4cccs4)c3)nc2c1,"inconclusive: 31.6 µM [inhibitor, single point]",
COc1ccc(C(NC(=O)c2cccnc2)c2cc(Cl)c3cccnc3c2O)cc1OC (stereo not given),"inconclusive: 25.1 µM [quencher, side channel, single point]",
C=CCN1c2ccccc2[C@]23C[C@@H](C(=O)OC)N(S(=O)(=O)c4ccc(C)cc4)C2=NC(C(=O)OC)=C(C(=O)OC)[C@H]13,,inactive: -15% [at 11.7 µM]
CC(C)NC[C@@H](O)c1ccc(O)c(O)c1,"inconclusive: 15.8 µM [inhibitor, partial curve]",
CC(=O)c1nn(-c2ccc(Br)cc2)cc1C(=O)c1ccccc1,"inconclusive: 15.8 µM [inhibitor, partial curve]",
CCOC(=O)c1cc(-c2ccc([N+](=O)[O-])cc2)nc2c1c(=O)[nH]c(=O)n2Cc1ccccc1,"inconclusive: 17.8 µM [quencher, side channel, partial curve]",
Cc1ccccc1CN1CCN(Cc2ccc3cccc(F)c3n2)CC1CCO (stereo not given),"inconclusive: 22.4 µM [inhibitor, partial curve, poor fit]",
Cc1cccc(N2CCN(CC(O)COc3ccccc3Cl)CC2)c1 (stereo not given),"inconclusive: 39.8 µM [inhibitor, single point]",
CCOc1cc(C(c2c(C)[nH][nH]c2=O)c2c(C)[nH][nH]c2=O)cc([N+](=O)[O-])c1O,"inconclusive: 25.1 µM [quencher, side channel, single point]",
Cc1nc2ccccc2nc(C)c1=NOCC(=O)N(c1ccccc1)C(C)C,"inconclusive: 14.1 µM [fluorescent, side channel, partial curve]",
